This excerpt belongs to a sample that is enriched for the strongest signals.
Tested on: Gal(b1-4)GalNAc(b1-3)[Fuc(a1-2)]Gal(b1-4)GlcNAc
Test: glycan array binding signal (z-score within array); higher = stronger binding
Details: glycan notation: IUPAC condensed, linker removed
Outline: (§1)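 The binding signal is a Z-score computed within each array and averaged over linkers. Arrays of the same protein sequence at different concentrations or buffers were also averaged together. Data originate from 3228 arrays in the Consortium for Functional Glycomics database, kept only where the protein sequence was available.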

Compared with “NCAM1 (Homo sapiens) (chain not printed)”, “CLEC-2 (Homo sapiens) (chain not printed)” is lower in “glycan array binding signal (z-score)” value: 1.3 for the first, -0.061 for the second.

For “Siglec-2 (Homo sapiens) (chain not printed)”, the “glycan array binding signal (z-score)” value was -0.223.

Tested on: Gal(b1-4)GlcNAc(b1-2)Man(a1-3)Man(b1-4)GlcNAc(b1-4)GlcNAc
Test: as above
Details: glycan notation: IUPAC condensed, linker removed
Outline: as §1

Going from “M-Ficolin G221F A256V (Homo sapiens) (chain not printed)” to “M-Ficolin G221F (Homo sapiens) (chain not printed)”, the “glycan array binding signal (z-score)” value rises from -0.274 to -0.18.

With “H-Ficolin (Homo sapiens) (chain not printed)” the “glycan array binding signal (z-score)” value was -0.227.

Tested on: Gal(b1-4)GlcNAc(b1-2)Man(a1-6)[Man(a1-3)]Man(b1-4)GlcNAc(b1-4)GlcNAc
Test: as above
Details: glycan notation: IUPAC condensed, linker removed
Outline: as §1

Going from “Thrombomodulin Extracellular (Homo sapiens) (chain not printed)” to “M-Ficolin G221F (Homo sapiens) (chain not printed)”, the “glycan array binding signal (z-score)” value falls from 0.667 to -0.185.

Going from “H-Ficolin (Homo sapiens) (chain not printed)” to FGF2 (chain not printed), the “glycan array binding signal (z-score)” value falls from 2.33 to -0.531.
